From PubChem BioAssay (NCI)
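48-hour exposure; five concentrations; linearly interpolated endpoints. GI50 = concentration required for 50% inhibition of growth. At the TGI there is no net growth.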

System: NCI-H322M lung
Assay: inhibition of tumour cell growth, NCI panel, 48 h

| SMILES | TGI | GI50 |
| --- | --- | --- |
| CC1=C2CC(C)(C)/C=C\C(=O)/C(C)=C\C3=C[C@H](C)C[C@]3(O2)C1=O | 12.1 µM | – |
| COc1cc2c(c(OC)c1OC)C(=O)[C@@H]1[C@H]2N1C(=O)NCCCl | > 100 µM | – |
| O=C1/C(=C/c2ccccc2)CN(C(=O)C(Cl)Cl)C/C1=C\c1ccccc1 | 2.84 µM | 1.45 µM |
| CC(=O)c1[nH]c(NC(C)C)c(C(=S)Nc2ccccc2)c1N | > 100 µM | – |
| C[C@H]1/C(=C/C(=O)OCCN(C)C)CC[C@H]2[C@H]1C(=O)C[C@H]1C(C)(C)[C@@H](O)CC[C@]21C | > 100 µM | – |
| COC(=O)C1=C(O)[C@H](C(=O)OC)C2(O)C(C(=O)OC)[C@H](c3ccc(OC(=O)C(C)c4ccccc4)cc3)C[C@@H]1[C@@H]2C(=O)OC (stereo partly specified) | 39.5 µM | 12.6 µM |
| CC(C)N(O)C(=N)c1ccccc1 | > 100 µM | – |
| CC(=O)Nc1cc2cc(N)ccc2oc1=O | > 100 µM | – |
| COc1ccc(C#Cc2ccc(=O)oc2-c2cc(OC)c(OC)c(OC)c2)cc1O | > 100 µM | 25.8 µM |
| NS(=O)(=O)c1nnc(NC(=O)C23CC4CC(CC(C4)C2)C3)s1 | > 100 µM | – |
| CC(C)C(=O)N1Cc2cc(Cl)cc(Cl)c2OC(=O)c2ccccc21 | > 100 µM | – |
| CSc1nc(C)cc(Nc2ccc(O)c(CN3CCOCC3)c2)n1 | > 100 µM | – |
| COc1cc(Oc2c(C)c(Cl)c(OC)c(Cl)c2OC)c2c(c1Cl)COC2=O | > 100 µM | – |
| O=c1c2ccc(S(=O)(=O)c3ccc4c(=O)n5c6ccccc6nc5c5cccc3c45)c3cccc(c32)c2nc3ccccc3n12 | > 100 µM | – |
| CC1(c2sccc2Cl)CC(c2sccc2Cl)=C(C#N)C(=C(C#N)C#N)N1 (stereo unspecified) | 34.9 µM | – |
| CCCCC(CCCCCC(CCCC)NCc1ccc2c(c1)OCO2)NCc1ccc2c(c1)OCO2 (stereo unspecified) | 1.84 µM | 0.712 µM |
| Cc1nc(SCC(=O)Nc2ccc(Cl)cc2)c2sc(=S)n(-c3ccccc3)c2n1 | > 10 µM | – |
| N#CC(C(=O)C(=O)Nc1ccccc1)c1ccccc1 (stereo unspecified) | > 100 µM | – |
| CCCCn1c(CSc2ccc(Cl)cc2)c(C(=O)OCC)c2cc(OC)c(Br)cc21 | > 100 µM | – |
| CN(C)CCN1C(=O)c2cccc3cc([N+](=O)[O-])cc(c23)C1=O | 8.71 µM | – |
| N#CCc1c(-c2ccccc2)n(S(=O)(=O)c2ccccc2)c2ccccc12 | > 100 µM | – |
| CCOC(=O)/C=C(\C(=O)OCC)n1ccc(=O)n(Cc2cnnn2CCCCOC(C)=O)c1=O | 36.8 µM | – |
| Cc1cccc(Br)[n+]1[O-] | > 100 µM | – |
| C=C(CN1CCN(c2ccc(C(F)(F)F)cc2)CC1)c1ccc(C(=O)Nc2ccccc2N)cc1 | > 100 µM | > 40.4 µM |
| COc1ccc([N+](=O)[O-])c2c(NCCCN(C)C)ccnc12 | 93.2 µM | – |
| CC1CCN(Cc2ccc(NC(=O)c3cc4ccc5cccnc5c4[nH]3)cc2)CC1 | 21.8 µM | 7.15 µM |

| SMILES | TGI | GI50 |
| --- | --- | --- |
| N#CC1(C#N)NC(c2ccccc2)C(C#N)(C#N)NC1c1ccccc1 (stereo unspecified) | > 100 µM | – |
| COc1cc2c3cc1Oc1c(O)c(OC)cc4c1C(Cc1ccc(O)c(c1)Oc1ccc(cc1)CC3N(C)CC2)N(C)CC4 (stereo unspecified) | 31.5 µM | – |
| O=S(=O)([O-])c1ccc(N=Cc2ccccc2[O-])cc1.O=S(=O)([O-])c1ccc(N=Cc2ccccc2[O-])cc1.[Co+2] | > 100 µM | > 100 µM |
| O=C(O)C[C@@H](Cl)[C@H](NC(=O)OCc1ccccc1)C(=O)O | > 100 µM | – |
| O=C(CN(C(=O)OC12CC3CC(CC(C3)C1)C2)C(=O)OC12CC3CC(CC(C3)C1)C2)Oc1ccc([N+](=O)[O-])cc1 | > 100 µM | – |
| CC(Oc1ccccc1Cl)C(=O)NN1C(=O)CC(=O)N(c2ccccc2)C1=S (stereo unspecified) | > 100 µM | – |
| Oc1ccc(O)c(-c2cn3c(n2)SCC3)c1 | 53.1 µM | 22 µM |
| COc1cc(C(=O)O[C@H](C(=O)NCCCNC(=O)[C@@H](OC(=O)c2cc(OC)cc3c(C)cccc23)[C@]2(C)CO2)[C@]2(C)CO2)c2cccc(C)c2c1 | 0.916 µM | 0.143 µM |
| COc1c(C)cc2c(C(C)C)c(O)c(O)c(C=O)c2c1O | 78 µM | – |
| COc1cc(-c2nc3ccc(N4CCN(C)CC4)cc3[nH]2)c(OC)c2[nH]c(COC(C)=O)nc12 | > 100 µM | – |
| Cc1[nH]c(=O)[nH]c(=O)c1/C=C/C(=O)O (tested in a mixture with another compound) | > 625 µM | – |
| CCCc1cn2c(/C=N/N=C(N)N)c(-c3cccc([N+](=O)[O-])c3)nc2s1 | 2.78 µM | – |
| N#Cc1ccc(Cc2ccccn2)cc1Cl | > 100 µM | – |
| Cc1c(O)c(N=Nc2nc3ccccc3s2)c2ccccc2c1O | > 50 µM | > 50 µM |
| C=C(CO)CC(O)c1cc(OC)ccc1OC (stereo unspecified) | > 100 µM | – |
| CC(O)C1(CNc2cc(Cl)nc(N)n2)CCCCC1 (stereo unspecified) | > 100 µM | – |
| C1CSCCSCCCSC2CCCCC2SC1 (stereo unspecified) | > 100 µM | – |
| CCCNC(=S)N/N=C(\C)c1ccc(S(=O)(=O)N(C)c2ccccc2)cc1 | > 100 µM | – |
| O=[N+]([O-])C(/C=C(\Cl)[N+](=O)[O-])=C1Nc2ccccc2N1 | > 100 µM | – |
| CCC(=O)N1C(=O)OCC1C(C)C (stereo unspecified) | > 100 µM | – |
| CN(C)c1ccc(/C=C/c2ccc(S(N)(=O)=O)cc2)cc1 | 43.4 µM | – |
| Oc1ccc(Nc2ccc3ccccc3c2)cc1 | 29.4 µM | 6.6 µM |
| CCc1c2c(cc3c1CC1(C3)Cc3cc4c(c(C(=O)OC)c3C1)CCCC4)CCCC2 (stereo unspecified) | > 100 µM | – |
| COC(=O)c1ccccc1N(C(=O)c1ccccc1)c1ccccc1C | > 100 µM | – |
| Clc1cc2nn(C3CCCCO3)nc2cc1Cl (stereo unspecified) | > 100 µM | – |
| CSC(=NC#N)S/C=C/C(=O)c1ccccc1 | > 100 µM | > 100 µM |

| SMILES | TGI | GI50 |
| --- | --- | --- |
| CC(=O)O[C@H]([C@H](OC(C)=O)[C@H](C)OC(C)=O)[C@@H](/C=C/[C@@H]1CC=CC(=O)O1)OC(C)=O | > 100 µM | > 100 µM |
| O=C(O)/C(Cl)=C(\Cl)C(=O)c1ccccc1 | > 100 µM | – |
| O=C1C(Cl)=C(Nc2ccc(Nc3ccccc3)c(NC3=C(Cl)C(=O)c4ccccc4C3=O)c2)C(=O)c2ccccc21 | 21.4 µM | 3.07 µM |
| O=c1oc2ccc(I)cc2c(=O)n1-c1ccc(F)cc1F | 17.3 µM | 2.76 µM |
| COC(OC)c1cc2c(cc1C=O)OCO2 | > 100 µM | – |
| CCC[CH2][Sn]([CH2]CCC)([O]c1cccc2cccnc12)[O]c1cccc2cccnc12 | 1.19 µM | 0.377 µM |
| c1ccc(-c2nc3ccccc3nc2SCc2cccnc2)cc1 | > 100 µM | – |
| BrC(Br)=C1C(=C(Br)Br)C(Br)C1Br (stereo unspecified) | 5.89 µM | – |
| COc1cc(C2CC(c3cccc(Nc4ccnc5cc(Cl)ccc45)c3)=NN2c2ccc(Cl)cc2)cc(OC)c1OC (stereo unspecified) | > 100 µM | 22.2 µM |
| COc1ccc2c3c(Nc4cccc(/C(C)=N\O)c4)[nH]c4ccccc4c-3c(N=O)c2c1 | 70.3 µM | 25 µM |
| COc1ccc2c(c1)c(-c1nc(-c3c[nH]c4ncccc34)cs1)cn2CCCN1CCCCC1 | 3.16 µM | 1.64 µM |
| C[C@]12CCC(=O)C(OC(=O)c3ccc([N+](=O)[O-])cc3)=C1CCC2=O | > 100 µM | – |
| Cc1ccc(Nc2nccc(N(C)c3ccc4c(C)n(C)nc4c3)n2)cc1S(N)(=O)=O | > 100 µM | – |
| CC1(C)[C@@H]2C[C@H]1[C@@H](Cc1cccc(C[C@H]3c4cc(-c5ccccn5)ncc4[C@H]4C[C@@H]3C4(C)C)c1)c1cc(-c3ccccn3)ncc12 | > 92.7 µM | – |
| O=C1CSC(c2c[nH]c3ccccc23)N1c1ccc(Cl)cc1 (stereo unspecified) | > 100 µM | – |
| CC12C3C4C1C1C2C3C41CO (stereo unspecified) | > 100 µM | – |
| CC(CC(N)C(=O)O)C(=O)O (stereo unspecified) | > 100 µM | – |
| CCOC(=O)Cn1c2ccccc2c(=O)c2cc(C)c(C)c(C#N)c21 | > 100 µM | – |
| CCOC(=O)CC1COc2ccc3c(c21)OCO3 (stereo unspecified) | > 100 µM | – |
| CCCCCCCCCCCCCCCCCc1nccn1CCOCCO | 11.9 µg/mL | 6.05 µg/mL |
| S=C(N/N=C(\c1ccccc1)c1ccccn1)NC1CCCCC1 | > 100 µM | – |
| Cc1c(-c2ccc(C3CCCCC3)cc2)nc2ccc(F)cc2c1C(=O)O | > 100 µM | 12.6 µM |
| COc1cc(-c2nccc3cc(OC)c(OC)cc23)ccc1O | > 100 µM | – |
| N#Cc1c(NCc2ccccc2)nc(NCc2ccccc2)c(C#N)c1-c1ccc(O)cc1 | > 100 µM | 32.3 µM |
| CC1CN=C(NS(=O)(=O)c2cc(C(=O)Nc3ccc(Cl)cc3)c(Cl)cc2S)NN1 (stereo unspecified) | > 100 µM | – |
| CCOC(=O)NN(C(=O)OCC)C(C(=O)C1=CCCCC1)N(NC(=O)OCC)C(=O)OCC | > 100 µM | – |

| SMILES | TGI | GI50 |
| --- | --- | --- |
| O=C1C(=C(C(F)(F)Cl)C(F)(F)Cl)C2CCC1C2 (stereo unspecified) | > 10 µM | – |
| CCOC(=O)C(NC(=O)c1ccccc1)(Nc1ccc(S(=O)(=O)Nc2ncccn2)cc1)C(F)(F)F (stereo unspecified) | > 100 µM | – |
| CCOC(=O)C(=O)Nc1nc2c(OCC)cccc2s1 | > 100 µM | – |
| CCN1CCC(Nc2ccnc3cc(Cl)ccc23)CC1 | > 100 µM | 20.8 µM |
| CC(CC(=O)N1C(=O)C(C)(C)[C@@H](O)[C@H]1CC(C)C(Cl)(Cl)Cl)C(Cl)(Cl)Cl (stereo partly specified) | > 100 µM | – |
| O=C(Cc1ccccc1F)NC1=C(Cl)C(=O)c2ccccc2C1=O | 47.9 µM | – |
| C=CCNC(=S)N1CC(C)C(=O)Nc2cc(Cl)ccc21 (stereo unspecified) | > 100 µM | – |
| CCN(CC)CCCC(C)Nc1ccnc2cc(Cl)ccc12 (stereo unspecified) | > 100 µM | 39.9 µM |
| COC(=O)/C=C\C(C#N)(C#N)N=Cc1cccc(OC)c1 | 35.3 µM | – |
| CCCCCCCCCCCCCCCC1=NCCN1 | 7.04 µM | 2.38 µM |
| COc1cc(OC)c(C(=O)c2cccs2)cc1N | > 100 µM | – |
| N.N.N.N.N.NC(=O)[O-].[Co+3].[I-] | > 100 µM | > 100 µM |
| O=C(O)[C@H](Cc1c[nH]c2ccccc12)N1C(=O)c2ccccc2C1=O | > 100 µM | – |
| O=C1C=CC2OC(c3ccccc3)C(O)C2O1 (stereo unspecified) | 18.4 µM | – |
| CCNC(=O)c1cc(Cl)ccc1NC(=O)C12CC3CC(CC(C3)C1)C2 | 89.7 µM | – |
| CC/C=C\C[C@H](F)C/C=C1/C(=O)C=C[C@@H]1C/C=C\CCCC(=O)OC | 10.4 µM | 3.3 µM |
| Cc1c(C)c(C)c(Cn2[nH]c(=O)n(C)c2=O)c(C)c1C | > 100 µM | – |
| NCCc1ccc(S(=O)(=O)F)cc1 | > 100 µM | > 100 µM |
| COc1ccc(C=Nc2c(C(=O)Nc3cccc(Cl)c3C)sc3nc(C)c(C(=O)/C=C/c4ccc(OC)cc4)cc23)cc1 | > 50 µM | 4.15 µM |
| CC(C)N1CCN(c2ccncc2S(=O)(=O)N2CCCCC2)CC1 | > 100 µM | – |
| COCCN(CCNC(=O)c1cccc2c(N)c3cccc(C)c3nc12)CCOC | 7.16 µM | – |
| CCCCCCCCCCCCOP(=O)(O)OP(=O)(O)OCC1OC(n2ccc(N)nc2=O)CC1O (stereo unspecified) | > 100 µM | – |
| CCCCOC(=O)c1ccc(N)cc1 | > 100 µM | > 100 µM |
